Results as given in the antibiotic and cytotoxicity screens of Wong et al. (2023).
Some of the results follow.

Assays:
HSkMC = human skeletal muscle cells; assay: cytotoxicity call (relative viability < 0.9); conditions: 10 µM
HepG2 = assay: cytotoxicity call (relative viability < 0.9); conditions: 10 µM
S. aureus RN4220 = assay: growth inhibition call (relative growth <= 0.2); conditions: 50 µM

Row | Structure (SMILES) | cytotoxicity call (HSkMC) | cytotoxicity call (HepG2) | growth inhibition call (S. aureus RN4220)
1 | O=C(C[C@H]1CC[C@@H](NC(=O)C2CC2)[C@@H](CO)O1)NCCCN1CCOCC1 | inactive | inactive | inactive
2 | C[C@@H]1CCCCO[C@H](CN(C)S(=O)(=O)c2cn(C)cn2)[C@@H](C)CN([C@H](C)CO)C(=O)c2cc(NS(=O)(=O)c3ccccc3)ccc2O1 | inactive | inactive | inactive
3 | CC(=O)Oc1ccc(O)cc1 | inactive | active | inactive
4 | O=C(C[C@H]1CC[C@H]2[C@@H](COC[C@@H](O)CN2S(=O)(=O)c2ccc(F)cc2)O1)N[C@@H]1CCN(Cc2ccccc2)C1 | inactive | inactive | inactive
5 | CO[C@H]1CN(C)C(=O)c2ccc(NC(=O)Nc3cccc(F)c3)cc2OC[C@H](C)N(C(=O)Nc2c(C)noc2C)C[C@@H]1C | inactive | inactive | inactive
6 | Cc1noc(C)c1NC(=O)Nc1ccc2c(c1)C(=O)N([C@H](C)CO)C[C@H](C)[C@@H](CN(C)Cc1ccc(C(F)(F)F)cc1)OCCCC[C@H](C)O2 | inactive | inactive | inactive
7 | COc1ccc(NC(=O)Nc2cccc3c2O[C@H](CN(C)Cc2ccc(C(=O)Nc4ccccc4N)cc2)[C@H](C)CN([C@@H](C)CO)C3=O)cc1 | inactive | inactive | inactive
8 | C[C@@H]1CN([C@H](C)CO)C(=O)Cc2cc(NC(=O)c3ccncc3)ccc2O[C@@H]1CN(C)S(=O)(=O)c1ccc(F)cc1 | inactive | inactive | inactive
9 | CCC1(c2ccccc2)C(=O)NCNC1=O | inactive | inactive | inactive
10 | NNC(=O)c1nc(-c2ccccc2)no1 | inactive | inactive | inactive
11 | C[C@@H]1CN([C@@H](C)CO)C(=O)CCCn2cc(nn2)CO[C@H]1CN(C)C(=O)Nc1ccc(N2CCN(C)CC2)cc1 | inactive | inactive | inactive
12 | CN1CCN(C(=O)[C@H]2[C@H](CO)[C@H]3Cn4c(ccc(-c5cncnc5)c4=O)[C@H]3N2CC2CC2)CC1 | inactive | inactive | inactive
13 | COc1ccc(NC(=O)N(C)C[C@H]2Oc3c(NC(=O)c4cc(C)nn4C)cccc3C(=O)N([C@H](C)CO)C[C@@H]2C)cc1 | inactive | inactive | inactive
14 | C[C@H](CO)N1C[C@H](C)[C@H](CN(C)C(=O)CCCN(C)C)OCCCC[C@H](C)Oc2ccc(NC(=O)Nc3ccc(F)cc3)cc2C1=O | inactive | inactive | inactive
15 | C[C@H]1CN([C@@H](C)CO)S(=O)(=O)c2ccc(C#Cc3cccnc3)cc2O[C@@H]1CN(C)C(=O)Nc1ccc2c(c1)OCO2 | inactive | inactive | inactive
16 | C[C@H](CO)N1C[C@H](C)[C@H](CN(C)S(=O)(=O)c2cccc(F)c2)Oc2ncc(C#Cc3ccc(F)cc3)cc2C1=O | inactive | inactive | inactive
17 | O=C(COc1ccc(Cl)cc1Cl)NCCn1ncc2c(=O)n(Cc3cccc([N+](=O)[O-])c3)cnc21 | inactive | inactive | inactive
18 | C[C@@H]1CN([C@@H](C)CO)C(=O)c2cc(NS(=O)(=O)c3ccccc3)ccc2O[C@@H]1CN(C)CC1CC1 | inactive | inactive | inactive
19 | C[C@@H]1CN([C@@H](C)CO)C(=O)c2cc(NS(=O)(=O)c3cn(C)cn3)ccc2O[C@@H](C)CCCCO[C@@H]1CN(C)S(=O)(=O)c1ccccc1 | inactive | inactive | inactive
20 | Cc1nonc1CO | inactive | inactive | inactive
21 | Cc1ccc(S(=O)(=O)N(C)C[C@@H]2Oc3ccc(NC(=O)Cn4cnnn4)cc3C(=O)N([C@H](C)CO)C[C@@H]2C)cc1 | inactive | inactive | inactive
22 | CO[C@H]1CN(C)C(=O)c2ccc(NC(=O)C3CC3)cc2OC[C@@H](C)N(C(=O)Cc2ccccn2)C[C@H]1C | inactive | inactive | inactive
23 | C[C@@H]1CN([C@@H](C)CO)C(=O)Cc2cc(NS(=O)(=O)c3ccccc3)ccc2O[C@H]1CN(C)S(=O)(=O)c1cccs1 | inactive | inactive | inactive
24 | COc1ccccc1CN1C(=O)c2ccccc2[C@](Cc2ccccc2I)(C(=O)NCC(F)(F)F)[C@@H]1c1ccc(CO)cc1 | inactive | inactive | inactive
25 | Cc1noc(C)c1NC(=O)N[C@H]1C=C[C@@H](CC(=O)N2CCN(C)CC2)O[C@H]1CO | inactive | inactive | inactive
26 | CC(C)(C)[S@](=O)N1Cc2cc(C(=O)N3CCCCC3)nc(-c3cccc(C4=CCCC4)c3)c2[C@@H]1CCO | inactive | inactive | inactive
27 | O=C(NCc1nc2ccccc2[nH]1)C1=C[C@@H](c2ccc(C(F)(F)F)cc2)C[C@@H](OCc2ccc(CO)cc2)O1 | inactive | inactive | inactive
28 | C[C@@H]1CN([C@H](C)CO)C(=O)c2cc(NS(=O)(=O)c3ccccc3)ccc2O[C@@H](C)CCCCO[C@@H]1CN(C)Cc1ccc(C(F)(F)F)cc1 | inactive | inactive | inactive

Row | Structure (SMILES) | cytotoxicity call (HSkMC) | cytotoxicity call (HepG2) | growth inhibition call (S. aureus RN4220)
29 | C[C@H](CO)N1C[C@H](C)[C@@H](CN(C)CC2CCCCC2)Oc2ccc(NC(=O)Cn3cnnn3)cc2CC1=O | inactive | inactive | inactive
30 | C[C@@H]1CN([C@H](C)CO)C(=O)c2cc(NC(=O)c3ccccc3)ccc2O[C@@H](C)CCCCO[C@H]1CN(C)C(=O)Nc1cccc2ccccc12 | inactive | active | inactive
31 | C[C@@H]1CN([C@@H](C)CO)S(=O)(=O)c2ccc(C#C[C@@H](C)O)cc2O[C@H]1CN(C)C | inactive | inactive | inactive
32 | COc1ccc(CN(C)C[C@@H]2OCCCC[C@H](C)Oc3ccc(NC(=O)Nc4ccccc4)cc3C(=O)N([C@@H](C)CO)C[C@@H]2C)cc1 | inactive | inactive | inactive
33 | CN1C[C@@H]2CN(C(=O)CO)C[C@@H]2c2ccccc21 | inactive | inactive | inactive
34 | CC(=O)Oc1c(C)cccc1C(=O)O | inactive | inactive | inactive
35 | Cc1noc(C)c1NC(=O)Nc1ccc2c(c1)CC(=O)N([C@H](C)CO)C[C@H](C)[C@@H](CN(C)C(=O)NC(C)C)O2 | inactive | inactive | inactive
36 | C[C@H]1CN([C@@H](C)CO)C(=O)c2cc(NC(=O)CCN3CCOCC3)ccc2O[C@@H]1CN(C)S(=O)(=O)c1ccc(F)cc1 | inactive | inactive | inactive
37 | COc1ccc(S(=O)(=O)Nc2ccc3c(c2)C(=O)N([C@@H](C)CO)C[C@@H](C)[C@H](CN(C)C(=O)NC2CCCCC2)OCCCC[C@@H](C)O3)cc1 | inactive | inactive | inactive
38 | C[C@@H]1CN([C@H](C)CO)C(=O)c2cc(NS(=O)(=O)c3cn(C)cn3)ccc2O[C@H]1CN(C)S(=O)(=O)c1ccc(F)cc1 | inactive | inactive | inactive
39 | C[C@@H]1CN([C@H](C)CO)C(=O)c2cc(NC(=O)C3CCCCC3)ccc2O[C@@H](C)CCCCO[C@@H]1CN(C)C(=O)C1CCCCC1 | inactive | inactive | inactive
40 | C[C@H](CO)N1C[C@H](C)[C@H](CN(C)Cc2ccc(Cl)c(Cl)c2)Oc2ccc(NS(=O)(=O)c3ccccc3)cc2C1=O | inactive | inactive | inactive
41 | C[C@@H]1CN([C@@H](C)CO)C(=O)c2cc(NC(=O)Cc3cn(C)c4ccccc34)ccc2O[C@@H]1CN(C)Cc1ccc(Cl)c(Cl)c1 | active | active | inactive
42 | C[C@@H]1CCCCO[C@@H](CN(C)S(=O)(=O)c2ccc(F)cc2)[C@@H](C)CN([C@H](C)CO)C(=O)c2cc(NS(C)(=O)=O)ccc2O1 | inactive | inactive | inactive
43 | O=C(C[C@H]1C[C@H]2c3cc(NC(=O)C4CCOCC4)ccc3O[C@H]2[C@H](CO)O1)NCc1cc(F)ccc1F | inactive | inactive | inactive
44 | COc1ccc(NC(=O)Nc2ccc3c(c2)C(=O)N([C@@H](C)CO)C[C@H](C)[C@H](CN(C)CC2CCCCC2)O3)cc1 | inactive | inactive | inactive
45 | Cc1noc(C)c1S(=O)(=O)Nc1ccc2c(c1)CC(=O)N([C@@H](C)CO)C[C@H](C)[C@@H](CN(C)Cc1ccccc1)O2 | inactive | inactive | inactive
46 | COc1ccc(S(=O)(=O)N2C[C@@H](O)COC[C@@H]3O[C@H](CC(=O)N[C@H]4CCN(Cc5ccccc5)C4)CC[C@H]32)cc1 | inactive | inactive | inactive
47 | CC(C)NC(=O)N(C)C[C@H]1Oc2c(NS(=O)(=O)c3ccccc3)cccc2C(=O)N([C@@H](C)CO)C[C@H]1C | inactive | inactive | inactive
48 | C[C@@H]1CCCCO[C@@H](CN(C)Cc2ccc(C(F)(F)F)cc2)[C@H](C)CN([C@@H](C)CO)C(=O)c2cc(NC(=O)Nc3ccc4c(c3)OCO4)ccc2O1 | inactive | active | inactive
49 | CC(=CCC1=C(C)C(=O)c2ccccc2C1=O)CCCC(C)CCCC(C)CCCC(C)C (stereo not given) | inactive | inactive | inactive
50 | C[C@@H]1CCCCO[C@@H](CN(C)S(=O)(=O)c2cccs2)[C@@H](C)CN([C@@H](C)CO)C(=O)c2cc(NS(=O)(=O)c3ccc(Cl)cc3)ccc2O1 | inactive | active | inactive
51 | C[C@@H]1NC(=O)NC1=O | inactive | inactive | inactive
52 | COC(=O)C[C@H]1CC[C@@H]2[C@@H](COc3ccc(NS(=O)(=O)c4ccccc4Cl)cc3C(=O)N2C)O1 | inactive | inactive | inactive
53 | C[C@H](CO)N1C[C@H](C)[C@@H](CN(C)C(=O)Nc2cccc3ccccc23)OCCCC[C@H](C)Oc2ccc(NC(=O)Nc3ccc(F)cc3)cc2C1=O | inactive | inactive | inactive
54 | O=C(C[C@H]1CC[C@H]2[C@@H](COC[C@@H](O)CN2S(=O)(=O)c2cccc(Cl)c2)O1)NCCCN1CCOCC1 | inactive | inactive | inactive
55 | CCc1c(c/2[nH]c1/C=C/1\N=C(/C(=C/3\N=C(/C=C/4\N/C(=C2)C(=C4C)C=C)[C@@H](C)[C@@H]3CCC(=O)O)CC(=O)N[C@@H](CC(=O)O)C(=O)O)C(=C1C)C(=O)O)C | inactive | inactive | inactive
